Measurements published in the RNAGym collection of RNA variant scans (doi:10.1093/nar/gkz1192).
Read counts are not given, so values of variants with three or more changes are uncertain.

B1: CPEB3 Ribozyme (parent)
chain: UAACAGGGGGCCACAGCAGAAGCGUUCACGUCGCAGCCCCUGUCAGAUUCUGGUGAAUCUGCGAAUUCUGCUGUAUAUCUC

Variants of: B1
Test: self-cleavage, relative activity (ratio to wild type); higher = more cleavage; in vitro, sequencing
Summary of the method: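 For each CPEB3 ribozyme variant, relative activity is its cleaved/total read fraction divided by the unmutated ribozyme's. Barcoded error-prone PCR libraries were transcribed by T7 RNA polymerase (5 hours, 37°C) and held in DNase I for 15 min before an EDTA stop, with cleavage occurring throughout. Template-switching reverse transcription and Illumina sequencing were used to read the RNAs. A 5-read minimum applied, and results are the mean of three batches.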

| Variant | self-cleavage |
| --- | --- |
| U26C U49C U67C | 0.21 |
| U26C U51C U66C | 0.15 |
| U26C U48C A56G U76C U80A | 0.13 |
| U26C U54G G63U | 0.41 |
| U26C U41C U72A | 0.35 |
| U26C U41C U72C | 0.43 |
| U26C U72C U74C A75G | 0.63 |
| U26C U51A U69A | 0.19 |
| U26C U58G U80G | 0.06 |
| U26C U31C A35G U41A G42U A57G U67C | 0 |
| U26C U54C U60C U69G | 0.36 |
| C27A A28G G42A U48A U72C | 0.2 |
| U26C U51C A57G U60A U76A | 0.19 |
| U26C U31G A35U U48C | 0.21 |
| U26C U31C U49C G52C | 0.22 |
| U26C U51G G61C | 0.14 |
| U26C U31C A45C | 0.35 |
| U26C U54C U67A C68U | 0.12 |
| U26C U66C U72G U80C | 0.11 |
| U26C U41G C68A | 0.16 |
| U26C U43C U69C U80C | 0.11 |

| Variant | self-cleavage |
| --- | --- |
| U26C G33A U48A | 0.12 |
| U26C G61A A64G | 0.18 |
| U26C G61A A64U | 0.12 |
| U26C U66C U78C | 0.2 |
| U26C U66C A77G | 0.2 |
| U26C U43C A47U U51A U72C | 0.05 |
| U26C U67A U76C | 0.26 |
| U26C G36A C62A | 0.13 |
| U26C G33C C34U A75U | 0.17 |
| U26C G53A C62U | 0.13 |
| U26C U60A A75G | 0.15 |
| U26C U49C A75U | 0.41 |
| U26C U43C C62U A64G U69C U74C | 0.16 |
| U26C G33U C34G A75C | 0.28 |
| U26G A57G U69A | 0.08 |
| U26C U41A U54C C68A | 0.08 |
| U26C U31G A57G | 0.19 |
| U26C U49A C81A | 0.29 |
| U26C U41A U67C C71G | 0.22 |
| U26C G61A G70C | 0.13 |
| U26C U41C U49C U72C | 0.17 |

| Variant | self-cleavage |
| --- | --- |
| U26C U66A U80A | 0.25 |
| U26C U43C A56G | 0.24 |
| U26C U51C U60C | 0.24 |
| U26G U31C G46U U69C | 0.06 |
| C27A A28G U78C | 0.17 |
| U26G G36A U43C U66C | 0.09 |
| U26C U43A A77U | 0.28 |
| U26C U41C U60C U72C | 0.1 |
| U26C G52C U67C | 0.09 |
| U26C U41A G55A | 0.3 |
| U26C U31A G46A A56U U78A | 0.11 |
| U26C U31C C37U U67A U80C | 0.13 |
| U26C U31A U41A U69C A75G | 0.09 |
| U26C U31A U51A U60C U80C | 0.29 |
| U26C U43C U49C | 0.27 |
| U26C U31C A47G U54C U66A | 0.13 |
| U26C U31A A56G U78G | 0.14 |
| U26C U48A A57G U72G | 0.08 |
| U26C U31G U72C | 0.14 |
| U26C U48C G53A A57G | 0.51 |
| U26G U58C G63A U66C | 0.05 |

| Variant | self-cleavage |
| --- | --- |
| U26C U43A U49C U51A U72C U74C A77G | 0.14 |
| U26C U41A G42A U49C U67C | 0.08 |
| U26C G42A U43C U69C | 0.05 |
| U26C U41A U43A U60C U69C | 0.37 |
| U26C U54A C71A | 0.16 |
| U26G A35G C71G | 0.33 |
| U26C G61A G63A | 0.22 |
| U26C U69A U78A | 0.09 |
| U26C U69A U78C | 0.42 |
| U26C G46U G61A | 0.17 |
| U26C U43C A57G G63U U66C U76C A77G | 0.12 |
| U26C G36U U41A A56C U67C | 0.07 |
| U26C U51A G63A A64G A65G U66C C81U | 0.07 |
| U26C U58G A64G | 0.11 |
| U26C U43C U54A U72C | 0.77 |
| U26C G33U U72C | 0.06 |
| U26G G53A U72C | 0.15 |
| U26C U51A A65G | 0.14 |
| U26C U41C U67A | 0.15 |
| U26C U43C U48C C71U | 0.14 |
